Assay results: PubChem BioAssay AID504332 (National Center for Advancing Translational Sciences (NCATS), 2011)
Screen size: about 350,000 compounds; about 31,000 (8.9%) were called active. The inconclusive results got no clear call from the source; some entries with a clear call stand among them for comparison. Calls follow the shape of the dose curve; as a rule, active = well fitted inhibition curve with a large enough effect; inconclusive = small, poorly fitted or top-dose-only effect; inactive = no such curve, though single readings can be large or run the other way. Potencies of inconclusive entries are doubtful fits and often do not repeat.

Target: Histone-lysine N-methyltransferase EHMT2 (Homo sapiens) (UniProt Q96KQ7)
Assay: qHTS Assay for Inhibitors of Histone Lysine Methyltransferase G9a; also: nearly all actives have a fitted effect of over 75% in size
Settings: G9a H3K9 monomethylation, AlphaScreen, 2 h; activity, negative = inhibition: at 59 µM (top of the series) unless noted
Summary of the method: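 Compounds were preincubated with 20 nM G9a for 15 min, after which biotinylated H3K9 peptide (500 nM) and SAM (20 uM) started a 2 h room-temperature reaction. Monomethylated product was quantified by antibody-based AlphaScreen chemiluminescence.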
% is scaled to controls: 0 for no effect and ±100 for the full control effect; potency is read from the fitted curve at half-maximal effect; tags tell the direction and shape of the fitted curve.

Chain of UniProt Q96KQ7 (Q96KQ7 whole entry, looked up): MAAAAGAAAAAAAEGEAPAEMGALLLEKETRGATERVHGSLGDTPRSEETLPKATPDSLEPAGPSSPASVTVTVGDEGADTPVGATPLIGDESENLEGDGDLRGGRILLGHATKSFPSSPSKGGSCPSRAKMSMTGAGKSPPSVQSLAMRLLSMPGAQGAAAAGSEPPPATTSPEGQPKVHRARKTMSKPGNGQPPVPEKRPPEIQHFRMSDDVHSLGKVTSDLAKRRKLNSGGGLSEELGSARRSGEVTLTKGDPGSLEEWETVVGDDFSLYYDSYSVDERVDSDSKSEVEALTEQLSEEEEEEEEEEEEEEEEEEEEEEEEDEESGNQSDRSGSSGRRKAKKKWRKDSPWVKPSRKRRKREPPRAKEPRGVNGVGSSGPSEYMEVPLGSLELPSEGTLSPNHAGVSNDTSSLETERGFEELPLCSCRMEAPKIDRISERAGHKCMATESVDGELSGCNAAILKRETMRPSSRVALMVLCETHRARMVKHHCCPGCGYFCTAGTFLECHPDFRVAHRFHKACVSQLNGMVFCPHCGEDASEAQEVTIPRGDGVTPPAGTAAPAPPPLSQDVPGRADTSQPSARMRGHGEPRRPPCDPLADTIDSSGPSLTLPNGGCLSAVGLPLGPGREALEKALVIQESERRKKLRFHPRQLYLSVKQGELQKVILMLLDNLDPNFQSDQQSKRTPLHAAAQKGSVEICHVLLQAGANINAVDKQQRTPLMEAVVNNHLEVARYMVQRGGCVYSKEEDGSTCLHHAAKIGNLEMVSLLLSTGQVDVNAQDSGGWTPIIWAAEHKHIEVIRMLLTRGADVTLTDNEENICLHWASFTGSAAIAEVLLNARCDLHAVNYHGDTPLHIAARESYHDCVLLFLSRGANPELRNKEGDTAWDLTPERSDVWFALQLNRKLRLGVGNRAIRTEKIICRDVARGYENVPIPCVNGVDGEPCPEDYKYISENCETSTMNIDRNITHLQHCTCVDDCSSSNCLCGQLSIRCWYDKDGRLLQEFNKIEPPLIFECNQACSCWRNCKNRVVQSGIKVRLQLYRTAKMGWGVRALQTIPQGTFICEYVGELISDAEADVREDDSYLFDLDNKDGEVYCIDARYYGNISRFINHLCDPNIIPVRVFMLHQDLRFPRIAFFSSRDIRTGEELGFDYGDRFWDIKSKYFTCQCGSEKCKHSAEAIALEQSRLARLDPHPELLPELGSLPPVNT

SMILES	Potency	activity, negative = inhibition
COc1ccc(-c2n[nH]c(C)c2-c2ccc(OC)c(OC)c2)c(O)c1	inconclusive: 79.4 µM [inhibitor, single point]	
O=C(CSc1nnc(-c2ccncc2)n1-c1ccccc1)NC1CC1	inconclusive: 89.1 µM [inhibitor, single point]	
CN1CCN(S(=O)(=O)c2ccc(NC(=S)NC(=O)C(C)(C)C)cc2)CC1	active: 56.2 µM	
C=Cc1ccc(Cn2c(C(=O)O)c(CNCc3ccccc3)c3ccc(C)cc32)cc1	inconclusive: 22.4 µM [inhibitor, partial curve, poor fit]	
N#Cc1ccccc1NC(=O)C1SC(=Nc2ccccc2)C(C(=O)Nc2ccc(Cl)cc2)=C1N (stereo not given)	inconclusive: 3.16 µM [inhibitor, partial curve, poor fit]	
CC1=C(C(=O)Nc2cccnc2)C(c2ccccc2)n2nc(-c3ccc(O)cc3)nc2N1 (stereo not given)	inconclusive: 0.141 µM [inhibitor, full curve, poor fit]	
CCCCN(C(=O)Cn1nnc2ccccc21)C(C(=O)NCCOC)c1cccs1 (stereo not given)	inactive	
COc1ccc(N(CC(=O)Nc2ccc3c(c2)OCO3)S(=O)(=O)c2ccccc2)c(OC)c1	inconclusive: 79.4 µM [inhibitor, single point]	
COc1ccc(NC(=O)c2ccccc2NC(=O)CSc2ccc(Cl)cc2)cc1	inactive	
COc1cc(NC(=O)c2ccccc2)c(OC)cc1NC(=O)CN1C(=O)NC2(CCCCC2)C1=O	inconclusive: 31.6 µM [inhibitor, single point]	
CCOC(=O)c1c(Cc2ccc(Cl)cc2)c[nH]c1C	inconclusive: 79.4 µM [inhibitor, single point]	
CCC(=O)Nc1cccc2cccnc12	inactive	
COc1cc(NC(=O)c2cnc(N)s2)cc(C(=O)Nc2cccc(C(F)(F)F)c2)c1	inconclusive: 20 µM [inhibitor, single point]	
Cc1ccc(C)c(NC(=O)c2ccccc2C(=O)c2ccccc2)c1	inactive	
Cc1c(C)n(C)c2ccc(C(=O)NCCCN3CCN(c4ccc(F)cc4)CC3)cc12	active: 39.8 µM	
O=C(Nc1cccc(NC(=O)c2cccnc2)c1)c1cccnc1	inconclusive: 0.631 µM [inhibitor, partial curve, poor fit]	
CC(=O)C1=NN(c2ccccc2)C(c2cccs2)N1c1ccc(N(C)C)cc1 (stereo not given)	active: 28.2 µM	
COC(=O)CN1C(=O)COc2ccc(S(=O)(=O)NCc3ccccc3)cc21	inactive	
CO/N=C/c1ccc(N2CCN(C(=O)c3ccc(F)cc3)CC2)c([N+](=O)[O-])c1	active: 44.7 µM	
Cc1cccc2sc(NC(=O)C3CCCN(S(=O)(=O)c4cccc5nonc45)C3)nc12 (stereo not given)	inconclusive: 39.8 µM [inhibitor, single point]	
CCCCCOC(=O)Cn1c(SCC(=O)Nc2ccccc2)nc2c1c(=O)[nH]c(=O)n2C	inconclusive: 56.2 µM [inhibitor, partial curve, poor fit]	
Cc1cc(C)nc(-n2ncc3c2CC(c2ccc(C(C)C)cc2)CC3=O)n1 (stereo not given)	inconclusive: 25.1 µM [inhibitor, single point]	
COC(=O)[C@H](CCSC)NC(=O)NCc1ccccn1	inconclusive: 89.1 µM [inhibitor, partial curve, poor fit]	
COc1ccccc1-c1nc(S(=O)(=O)c2ccccc2)c(N2CCCCC2)o1	active: 25.1 µM	

SMILES	Potency	activity, negative = inhibition
O=C(O)c1cccc(-n2c(-c3cnccn3)n[nH]c2=S)c1	active: 10 µM	
COC(=O)CSc1nsc(SCC(=O)OC)c1C#N	inconclusive: 39.8 µM [inhibitor, partial curve, poor fit]	
Cc1cc(NC(=O)COc2ccccc2C)ccc1NC(=O)c1cccs1	active: 79.4 µM	
O=C(O)c1ccn2c(C(=O)c3ccc(Cl)cc3)c(-c3ccccc3)cc2c1	inconclusive: 20 µM [inhibitor, full curve]	
CCOc1ccc(/C=N/N2C(C)CCCC2C)cc1OC (stereo not given)	inactive	
O=C(NCc1ccco1)C(=O)c1cn(CC(=O)N2CCCC2)c2ccccc12	inconclusive: 89.1 µM [inhibitor, single point]	
N#Cc1cc([N+](=O)[O-])ccc1NC(=O)COC(=O)C1CC2CCCC(C1)C2=O (stereo not given)	inconclusive: 89.1 µM [inhibitor, single point]	
COc1cccc(CSc2nc3sc(C)c(C)c3c(=O)n2Cc2ccco2)c1	inconclusive: 89.1 µM [inhibitor, partial curve, poor fit]	
COc1cccc(NC(=O)CN2CCc3ccccc3C2)c1	inactive	
COc1ccc(/C=C2/C(=O)OCc3cc(OC)c(OC)cc32)c(OC)c1	inactive	
S=C(Nc1ccccc1)N1CCN(C/C=C/c2ccccc2)CC1	inconclusive: 44.7 µM [inhibitor, partial curve, poor fit]	
Nc1c(C(=O)Nc2ccc(C(=O)O)cc2)sc2nc3c(cc12)CCCC3	inconclusive: 22.4 µM [inhibitor, single point]	
CCN(CC)C(=O)CSc1nc2c(sc(=S)n2-c2ccc(C)cc2C)c(=O)[nH]1	inconclusive: 89.1 µM [inhibitor, single point]	
CCCCN(C(=O)CSc1nnc(Nc2ccc(C)c(C)c2)s1)c1c(N)n(Cc2ccccc2)c(=O)[nH]c1=O	inconclusive: 3.16 µM [inhibitor, single point]	
O=C(Cn1nc(C(F)F)cc1C(F)F)NNC(=S)Nc1ccc([N+](=O)[O-])cc1	active: 20 µM	
CC(=O)Nc1ccccc1	inactive	
O=C1OC2(c3ccccc31)c1cc(I)c(O)c(I)c1Oc1c2cc(I)c(O)c1I	inconclusive: 1.58 µM [inhibitor, full curve, poor fit]	
CCOC(=O)C1=C(O)C(=O)N(Cc2cccnc2)C1c1ccc(OC)cc1 (stereo not given)	inconclusive: 89.1 µM [inhibitor, single point]	
O=C(Cn1nc(CNc2ccc(Cl)cc2)[n+]2c1CCCCC2)c1ccc(Cl)cc1	inconclusive: 28.2 µM [inhibitor, single point]	
CCc1noc(-c2ccc(N3CCCCC3C)c([N+](=O)[O-])c2)n1 (stereo not given)	inconclusive: 39.8 µM [inhibitor, partial curve, poor fit]	
Cc1ccc(N=CC2=C(O)CC(C)(C)CC2=O)nc1	inconclusive: 11.2 µM [inhibitor, partial curve]	
COC(=O)[C@H](C)[C@@H]1C[C@@]1(C)[C@@H](NC(=O)OCc1ccccc1)c1ccccc1	inactive	
CC(C)NCCOCCSc1ccc(Cl)cc1	active: 8.91 µM	
COC(=O)c1c(C(=O)OC)c2ccccn2c1C(=O)c1ccc([N+](=O)[O-])cc1	inconclusive: 89.1 µM [inhibitor, single point]	

SMILES	Potency	activity, negative = inhibition
COc1ccccc1-c1nccc(N2CCN(C)CC2)n1		inactive: 6.19% [at 0.501 µM]
CCC(=O)Nc1nnc(CCc2ccccc2)s1	inactive	
CCC1(c2ccccc2)NC(=O)N(CC(=O)NCc2ccc(OC)cc2)C1=O (stereo not given)	inactive	
Cc1nn(C)c(C)c1CN(C(=O)C1CCC(=O)N(C2CCCCCC2)C1)C(C)C (stereo not given)		inactive: 19.3% [at 0.0925 µM]
CN1CCN(C(c2ccccn2)c2cc(Cl)c3cccnc3c2O)CC1 (stereo not given)	inconclusive: 5.01 µM [inhibitor, full curve, poor fit]	
CC(=O)Nc1sc2c(c1CN1CCCC1)CCCC2	inconclusive: 0.501 µM [inhibitor, full curve]	
CCN(CC)c1ccc(/C=C2\C(=O)N(c3nnc(C)c(=O)[nH]3)N=C2C)cc1	active: 50.1 µM	
O=C(COC(=O)CCc1nc2ccccc2c(=O)[nH]1)NC1CCS(=O)(=O)C1 (stereo not given)	inconclusive: 89.1 µM [inhibitor, single point]	
Cc1cc(C)c2[nH]c3nc(SCC(=O)O)nnc3c2c1	inactive	
COC(Cc1n[nH]c(=S)n1-c1ccc(Cl)cc1)OC	inconclusive: 28.2 µM [inhibitor, single point]	
CCOC(=O)c1c2c(c(=S)n(-c3ccccc3)c1N)CCC2	active: 25.1 µM	
Cc1c(NC(=O)CSc2nc3ccccc3s2)c(=O)n(-c2ccccc2)n1C	active: 50.1 µM	
Cc1cccc(N=Nc2c(O)[nH]c3ccc(F)cc23)c1	inconclusive: 35.5 µM [inhibitor, partial curve, poor fit]	
N#CC1=C(N)OC2=C(C(=O)CCC2)C1CCc1ccccc1 (stereo not given)	inconclusive: 15.8 µM [inhibitor, single point]	
CCC(C)[C@H](NC(=O)c1cc2cc(Cl)ccc2n1C)C(=O)N1CCC(C(=O)O)CC1 (stereo not given in full)	inactive	
Cc1ccc(C)c(N(CC(N)=O)S(C)(=O)=O)c1	inactive	
Cc1ccc(CNc2cc(C(=O)O)ccc2Cl)s1	inconclusive: 89.1 µM [inhibitor, single point]	
CC(CCN1C(Nc2ccccc2)=NC[C@@H]1Cc1ccccc1)c1ccccc1 (stereo not given in full)	inconclusive: 70.8 µM [inhibitor, partial curve, poor fit]	
CCc1ccc(CN(C(=O)c2oc3ccccc3c2C)C2CCS(=O)(=O)C2)cc1 (stereo not given)	inactive	
Cc1nn(C)c(C(=O)NNC(=O)NC2CCCCC2)c1Cl	inconclusive: 50.1 µM [inhibitor, partial curve, poor fit]	
COc1ccc(-c2nc(SCC(=O)Nc3cc(C)on3)n[nH]2)cc1	inconclusive: 5.01 µM [inhibitor, full curve, poor fit]	
O=C(NC(=S)NNC(=O)c1ccccc1[N+](=O)[O-])c1ccc(Br)cc1	active: 8.91 µM	
